# Results taken from PubChem BioAssay AID588855 (National Center for Advancing Translational Sciences (NCATS), 2011).
# The whole screen tested about 410,000 compounds, of which about 5,000 (1.2%) were called active. Inconclusive results, whose numbers are uncertain, are shown with a selection of clear calls. Calls follow the shape of the dose curve; as a rule, active = well fitted inhibition curve with a large enough effect; inconclusive = small, poorly fitted or top-dose-only effect; inactive = no such curve, though single readings can be large or run the other way. Potencies beside an inconclusive call are fits to weak or partial responses and may not hold up.
# Assay: qHTS for Inhibitors of TGF-b; also: nearly all actives have a fitted effect of over 65% in size
# Conditions: HepG2 CAGA-GFP TGF-b/SMAD3 reporter, GFP fluorescence, 18 h, TGF-beta stimulated, 500 pg/mL final; series mostly up to 46.1 µM
# Outline: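 HEPG2 CAGA-GFP cells (1000/well, DMEM with 1% FBS) were pre-incubated 2 h at 37 degrees C, given compound by pin tool, then stimulated with TGF-beta at 500 pg/mL final for 18 h before per-cell GFP fluorescence imaging.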
# Potency is read from the fitted curve at half-maximal effect; tags tell the direction and shape of the fitted curve.
row,Compound,Potency
1,Clc1ccccc1-c1nc(-c2ccc(Br)o2)no1,"inconclusive: 22.4 µM [inhibitor, single point]"
2,CN1/C(=C\C(=O)c2cccs2)Sc2ccccc21,inactive
3,CCC1=C(OC(=O)N(CC)CC)N2C(=O)OC(=NCC3CC3)[C@]2(C)[C@H]2C1=CC[C@H]1C(=O)N(CC)C(=O)[C@H]12,inactive
4,Cc1cnc(NC(=O)CCCc2nc3ccccc3s2)s1,"inconclusive: 10 µM [inhibitor, partial curve, poor fit]"
5,Cc1c(O)c(CN2CCCCC2)cc2c3c(c(=O)oc12)CCC3,"inconclusive: 0.891 µM [inhibitor, full curve]"
6,COc1cccc(-c2cnc3c(NC(C)=O)cc(-c4ccc(C(=O)N5CCOCC5)cc4)cn23)c1,inactive
7,CC(=O)Nc1ccc(-c2ccnc3c2CC(C)(C(=O)NCCc2ccccc2)O3)cc1 (stereo not given),inactive
8,COc1ccc(C2=C(C)C(=NCCCN3CCN(c4cc(Cl)ccc4C)CC3)NS2(=O)=O)cc1,"inconclusive: 35.5 µM [inhibitor, single point]"
9,Cc1ccc(NC(=O)Cn2cc(S(=O)(=O)Cc3cccc(Cl)c3)c3ccccc32)cc1C,"inconclusive: 20 µM [inhibitor, partial curve, poor fit]"
10,COC1OC2COC(c3ccccc3)OC2C2OC(c3ccccc3)OC12 (stereo not given),inactive
11,COc1ccc(S(=O)(=O)Nc2cc(Sc3ncn[nH]3)c(O)c3ccccc23)cc1,active: 3.16 µM
12,COc1ccc(C(=O)CCS(=O)(=O)c2ccc(C)cc2)cc1,"inconclusive: 35.5 µM [inhibitor, single point]"
13,CCCCCC/C(C)=C1/SC(=S)NC1=O,"inconclusive: 10 µM [inhibitor, partial curve, poor fit]"
14,COc1ccc(/C=N/NC(=S)Nc2ccccc2)cc1COc1ccc(F)cc1,inactive
15,Cc1ccc(S(=O)(=O)N(CC(=O)Nc2ccc(C)cc2C)C(=O)N2CCN(C)CC2)cc1,inactive
16,N#CC1=C(SCC(=O)NC23CC4CC(CC(C4)C2)C3)NC(=O)C(C#N)C12CCCCC2 (stereo not given),active: 11.2 µM
17,CC(C)c1ccc(Nc2nc(Cl)nc(Cl)n2)cc1,inactive
18,CC(=O)Nc1ccc(SC[C@H](Cc2ccccc2)N2CC[C@@H](C)CCC2=O)cc1,"inconclusive: 35.5 µM [inhibitor, single point]"
19,CN1C(=O)Cc2cc(S(=O)(=O)CCC(=O)Nc3ccc(Cl)c(C(F)(F)F)c3)ccc21,"inconclusive: 12.6 µM [inhibitor, partial curve, poor fit]"
20,CCOC(=O)c1c(C)[nH]c(CCC(=O)NCc2cccc(C)c2)c1C,"inconclusive: 14.1 µM [inhibitor, single point]"

row,Compound,Potency
1,O=C(c1ccccc1S(=O)(=O)NCC(O)COc1ccc([N+](=O)[O-])cc1)N1CCCCC1 (stereo not given),"inconclusive: 12.6 µM [inhibitor, single point]"
2,NC(Cc1ccc(C(F)(F)F)cc1)c1csc(Nc2ccc(C(=O)c3ccccc3)cc2)n1 (stereo not given),"inconclusive: 17.8 µM [inhibitor, single point]"
3,O=C(CCC1N=C2c3ccccc3N=C(SCc3cccc(F)c3)N2C1=O)NCCc1ccccc1 (stereo not given),"inconclusive: 11.2 µM [inhibitor, partial curve]"
4,CCCCc1nn2c(=O)cc(COC(=O)c3cccc(Cl)c3)nc2s1,"inconclusive: 0.126 µM [inhibitor, full curve, poor fit]"
5,CCC1Sc2ccc(S(=O)(=O)CCC(=O)Nc3ccc(NC(C)=O)cc3)cc2NC1=O (stereo not given),inactive
6,Cc1cccc(C)c1NC(=O)Cn1nnc(C(=O)Nc2c(C)cccc2C)c1N,"inconclusive: 2 µM [inhibitor, partial curve, poor fit]"
7,CN(C)CCCNC(=O)/C=C/c1ccc(OCc2c(F)cccc2Cl)cc1,"inconclusive: 31.6 µM [inhibitor, single point]"
8,O=C(CNC(=O)c1ccccc1F)Nc1ccc2c(c1)CCC2,inactive
9,Cc1cc(F)ccc1NC(=O)C1CCN(C(=O)c2cnn(-c3ccccc3)c2-n2cccc2)CC1,"inconclusive: 3.55 µM [inhibitor, partial curve, poor fit]"
10,Cc1cc(C)c(N(C(=O)CN2C(=O)c3ccccc3S2(=O)=O)C(C(=O)NCC2CCCO2)c2ccc(F)cc2)c(C)c1 (stereo not given),"inconclusive: 35.5 µM [inhibitor, single point]"
11,COc1cccc(-c2ccc3c(c2)C2CC3CCN2C(=O)c2ccc(Cl)cc2)c1 (stereo not given),"inconclusive: 35.5 µM [inhibitor, single point]"
12,COc1ccccc1C(=O)NCC1(c2ccccc2)CCCC1,"inconclusive: 11.2 µM [inhibitor, single point]"
13,CC(C)Cc1ccc(CN2C(C)C(=O)N(Cc3cn(Cc4ccco4)nn3)CCS2(=O)=O)cc1 (stereo not given),"inconclusive: 22.4 µM [inhibitor, single point]"
14,COc1cc(NC(=S)NC(=O)CCc2ccccc2)cc(OC)c1,"inconclusive: 35.5 µM [inhibitor, single point]"
15,Cc1cc(NC(=O)CCS(=O)(=O)c2nc(-c3ccccc3)cc(C(F)(F)F)n2)no1,"inconclusive: 25.1 µM [inhibitor, single point]"
16,CCCCn1nnnc1C(c1cccc(OC)c1OC)N1CCN(C/C=C/c2ccccc2)CC1 (stereo not given),"inconclusive: 28.2 µM [inhibitor, single point]"
17,COc1ccc(NS(=O)(=O)c2cccc(C(=O)NN=Cc3ccc(OC)c(O)c3)c2)cc1,"inconclusive: 3.55 µM [inhibitor, single point]"
18,Cc1nn(C)c2c1c(-c1ccccc1)cc(=O)n2Cc1ccccc1C#N,"inconclusive: 28.2 µM [inhibitor, single point]"
19,CCC(C)c1ccc(N(C(=O)c2ccco2)C(C(=O)NC2CCCC2)c2cccnc2)cc1 (stereo not given),"inconclusive: 0.251 µM [inhibitor, full curve, poor fit]"
20,O=C(Nc1ccc([N+](=O)[O-])cc1)Nc1ccc2[nH]c(=O)[nH]c2c1,"inconclusive: 12.6 µM [inhibitor, single point]"
